# Over roughly 81,000 sequences, “one-hybrid fitness for binding NBS DNA” has its median near -0.1; the highest 2% begin near 0.36. The list shows a part of the results.
# B1: Caulobacter ParB omega fusion; a variant is named by its letters at X, in order, B8GW30 (parent)
# chain: MESVVVGEPGMSEGRRGLGRGLSALLGEVDAAPAQAPGEQLGGSREAPIEILQRNPDQPRRTFREEDLEDLSNSIREKGVLQPILVRPSPDTAGEYQIVAGERAWRAAQRAGLKTVPIMVRELDDLAVLEIGIIENVQRADLNVLEEALSYKVLMEKFERTQENIAQTIGKSXSHVANXMRLLXLPDEVQSYLVSGELTAXHARAIAAAADPVALAKQIIEGGLSVRETEALARKAPNLSAGKSKGGRPPRVKDTDTQALESDLSSVLGLDVSIDHRGSTGTLTITYATLEQLDDLCNRLTRGI
# Variants of: B1
# Experiment: one-hybrid fitness for binding NBS DNA (the Noc-binding site; scaled: cognate 1, non-cognate 0); higher = stronger binding
# Conditions: with NBS DNA site
# Procedure, shortened: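 Selection: bacterial one-hybrid in E. coli USO, HIS3 reporter with the site 19 bp from the promoter, 48 hours at 37°C on M9-minus-histidine plus 0.1 mM IPTG and 5 mM 3-AT. Libraries were Caulobacter ParB with four randomised specificity codons, sequenced on Illumina before and after selection. Fitness is the rescaled log change in variant-to-wild-type read ratio, anchored to the cognate and non-cognate sites.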
row,Variant,one-hybrid fitness for binding NBS DNA
1,GKAR,≤ 0.2
2,VKIQ,≤ 0.2
3,TESR,≤ 0.2
4,LKVY,≤ 0.2
5,HTCF,≤ 0.2
6,CCYD,≤ 0.2
7,DVIV,≤ 0.2
8,RVPI,≤ 0.2
9,PRTL,≤ 0.2
10,QMDG,≤ 0.2
11,SNEP,≤ 0.2
12,SDPM,≤ 0.2
13,APIT,≤ 0.2
14,RVII,≤ 0.2
15,HIWR,≤ 0.2
16,HCFF,≤ 0.2
17,HWPI,≤ 0.2
18,LAFG,≤ 0.2
19,TRAY,≤ 0.2
20,KLNE,≤ 0.2
21,CGEV,≤ 0.2
22,EWRG,≤ 0.2
23,APIW,≤ 0.2
24,CFPL,≤ 0.2

row,Variant,one-hybrid fitness for binding NBS DNA
1,KMKM,≤ 0.2
2,VYNP,≤ 0.2
3,SPKC,≤ 0.2
4,MIVI,≤ 0.2
5,LFSF,≤ 0.2
6,GHSK,≤ 0.2
7,LLQW,≤ 0.2
8,WKCR,≤ 0.2
9,PREP,≤ 0.2
10,QMLF,≤ 0.2
11,VMNC,≤ 0.2
12,VKTT,≤ 0.2
13,YMAD,≤ 0.2
14,QNQH,≤ 0.2
15,YFMS,≤ 0.2
16,KNAS,≤ 0.2
17,THTY,≤ 0.2
18,GKGR,≤ 0.2
19,DDTT,≤ 0.2
20,ACCR,≤ 0.2
21,WRGG,≤ 0.2
22,PNCT,≤ 0.2
23,RRPP,≤ 0.2
24,ANAR,≤ 0.2

row,Variant,one-hybrid fitness for binding NBS DNA
1,PANT,≤ 0.2
2,TASD,≤ 0.2
3,CHRT,≤ 0.2
4,IREV,≤ 0.2
5,TYIL,≤ 0.2
6,YGVF,≤ 0.2
7,LPTA,≤ 0.2
8,SVWC,≤ 0.2
9,DYYS,≤ 0.2
10,MLVM,≤ 0.2
11,GDGE,≤ 0.2
12,VLFP,≤ 0.2
13,ATRG,≤ 0.2
14,WPYR,≤ 0.2
15,HEPQ,≤ 0.2
16,ERPV,≤ 0.2
17,QHTM,≤ 0.2
18,MCRL,≤ 0.2
19,ETDR,≤ 0.2
20,LDHL,≤ 0.2
21,HGKS,≤ 0.2
22,NMPG,≤ 0.2
23,ARRL,≤ 0.2
24,LIQS,≤ 0.2

row,Variant,one-hybrid fitness for binding NBS DNA
1,RMGE,≤ 0.2
2,TYRF,≤ 0.2
3,HYTV,≤ 0.2
4,ARPR,≤ 0.2
5,RMAF,≤ 0.2
6,GPTI,≤ 0.2
7,VMQS,≤ 0.2
8,SCHW,≤ 0.2
9,EKSS,≤ 0.2
10,ISAY,≤ 0.2
11,QENV,≤ 0.2
12,KVNC,≤ 0.2
13,IADG,≤ 0.2
14,EKRH,≤ 0.2
15,LCRL,≤ 0.2
16,QLKA,0.466
17,RNRE,≤ 0.2
18,IDQG,≤ 0.2
19,SWPG,≤ 0.2
20,QPEM,≤ 0.2
21,KLRM,≤ 0.2
22,QQSD,≤ 0.2
23,RSLM,≤ 0.2
24,YCMR,≤ 0.2

row,Variant,one-hybrid fitness for binding NBS DNA
1,GHRR,≤ 0.2
2,YSNC,≤ 0.2
3,TICM,≤ 0.2
4,GKKT,≤ 0.2
5,RFYL,≤ 0.2
6,TDPC,≤ 0.2
7,IHIS,≤ 0.2
8,LTFC,≤ 0.2
9,LLQC,≤ 0.2
10,DFLV,≤ 0.2
11,YTKR,≤ 0.2
12,SLHW,≤ 0.2
13,NGGT,≤ 0.2
14,RGRQ,≤ 0.2
15,NMTN,≤ 0.2
16,CRKA,≤ 0.2
17,QLCI,≤ 0.2
18,QHFR,0.408
19,RIDI,≤ 0.2
20,QTQQ,0.238
21,FVTQ,≤ 0.2
22,NHAI,≤ 0.2
23,THQT,≤ 0.2
24,GLGG,≤ 0.2

row,Variant,one-hybrid fitness for binding NBS DNA
1,FCML,≤ 0.2
2,LTRE,≤ 0.2
3,NATF,≤ 0.2
4,GTWE,≤ 0.2
5,YCSV,≤ 0.2
6,ENTG,≤ 0.2
7,KYMG,≤ 0.2
8,IFMG,≤ 0.2
9,SVMV,≤ 0.2
10,RRQR,0.765
11,HHTT,≤ 0.2
12,QGHG,≤ 0.2
13,PASL,≤ 0.2
14,SPCV,≤ 0.2
15,YVDF,≤ 0.2
16,ATRS,≤ 0.2
17,DFNT,≤ 0.2
18,NEPG,≤ 0.2
19,AHDG,≤ 0.2
20,EVRV,≤ 0.2
21,NHHS,≤ 0.2
22,SGPW,≤ 0.2
23,WSDC,≤ 0.2
24,IARR,≤ 0.2

row,Variant,one-hybrid fitness for binding NBS DNA
1,HPAW,≤ 0.2
2,ITAD,≤ 0.2
3,RMDD,≤ 0.2
4,KCTN,≤ 0.2
5,MGLC,≤ 0.2
6,WRKL,≤ 0.2
7,DTNM,≤ 0.2
8,QFLL,≤ 0.2
9,RGAI,≤ 0.2
10,RHDG,≤ 0.2
11,HKPR,≤ 0.2
12,KMSM,≤ 0.2
13,VGLL,≤ 0.2
14,TMIS,≤ 0.2
15,SSDG,≤ 0.2
16,QPKQ,≤ 0.2
17,GGVR,≤ 0.2
18,RVEW,≤ 0.2
19,IYYC,≤ 0.2
20,RFMK,≤ 0.2
21,IMFV,≤ 0.2
22,DRNT,≤ 0.2
23,QLTH,≤ 0.2
24,QKCF,≤ 0.2

row,Variant,one-hybrid fitness for binding NBS DNA
1,GQQY,≤ 0.2
2,RPEY,≤ 0.2
3,RYTW,≤ 0.2
4,YAQM,≤ 0.2
5,DTLA,≤ 0.2
6,RYCY,≤ 0.2
7,SIIV,≤ 0.2
8,DPTM,≤ 0.2
9,WSSV,≤ 0.2
10,RQIQ,≤ 0.2
11,WTDE,≤ 0.2
12,VNNR,≤ 0.2
13,SDFC,≤ 0.2
14,DSTS,≤ 0.2
15,PEKS,≤ 0.2
16,ARIR,≤ 0.2
17,KRMD,≤ 0.2
18,RRYV,0.254
19,LHSY,≤ 0.2
20,AMEV,≤ 0.2
21,NSQT,≤ 0.2
22,HHRT,≤ 0.2
23,IGKV,≤ 0.2
24,LQAR,≤ 0.2

row,Variant,one-hybrid fitness for binding NBS DNA
1,PYII,≤ 0.2
2,DLWA,≤ 0.2
3,NWPD,≤ 0.2
4,ETVF,≤ 0.2
5,RITI,≤ 0.2
6,KEHG,≤ 0.2
7,LSMW,≤ 0.2
8,EVKL,≤ 0.2
9,TSPG,≤ 0.2
10,KRDK,≤ 0.2
11,HKNW,≤ 0.2
12,HLCW,≤ 0.2
13,HPPP,≤ 0.2
14,APDG,≤ 0.2
15,LQPC,≤ 0.2
16,DAAA,≤ 0.2
17,PPTT,≤ 0.2
18,SFWF,≤ 0.2
19,HAWC,≤ 0.2
20,LYKN,≤ 0.2
21,SINR,≤ 0.2
22,QVRR,0.77
23,RCRW,≤ 0.2
24,IMAC,≤ 0.2

row,Variant,one-hybrid fitness for binding NBS DNA
1,HMCS,≤ 0.2
2,CAPC,≤ 0.2
3,SPQA,≤ 0.2
4,NHND,≤ 0.2
5,QGGL,≤ 0.2
6,PCES,≤ 0.2
7,FISR,≤ 0.2
8,DPWK,≤ 0.2
9,DMTN,≤ 0.2
10,FETR,≤ 0.2
11,DSPS,≤ 0.2
12,VAWC,≤ 0.2
13,SGSC,≤ 0.2
14,MPRE,≤ 0.2
15,VMIM,≤ 0.2
16,YWVI,≤ 0.2
17,VALC,≤ 0.2
18,LSIE,≤ 0.2
19,FAIM,≤ 0.2
20,KPLE,≤ 0.2
21,QITQ,≤ 0.2
22,LELT,≤ 0.2
23,CHMT,≤ 0.2
24,QCTY,0.225

row,Variant,one-hybrid fitness for binding NBS DNA
1,GMPC,≤ 0.2
2,VYNA,≤ 0.2
3,WNKR,≤ 0.2
4,RSVQ,≤ 0.2
5,CAGA,≤ 0.2
6,LGPR,≤ 0.2
7,RNAD,≤ 0.2
8,CPHL,≤ 0.2
9,GASG,≤ 0.2
10,QNHM,≤ 0.2
11,PMLC,≤ 0.2
12,VLMT,≤ 0.2
13,YSYW,≤ 0.2
14,AAPR,≤ 0.2
15,TVPE,≤ 0.2
16,TEVG,≤ 0.2
17,NTHV,≤ 0.2
18,SSVK,≤ 0.2
19,PNAF,≤ 0.2
20,ENNR,≤ 0.2
21,TMSC,≤ 0.2
22,IRAK,≤ 0.2
23,TFWC,≤ 0.2
24,FWMG,≤ 0.2

row,Variant,one-hybrid fitness for binding NBS DNA
1,AAHF,≤ 0.2
2,RMPI,≤ 0.2
3,RFTS,0.285
4,AEGS,≤ 0.2
5,AVDN,≤ 0.2
6,LWLG,≤ 0.2
7,CSAL,≤ 0.2
8,TRFG,≤ 0.2
9,TRRH,0.292
10,GLTG,≤ 0.2
11,TPDR,≤ 0.2
12,RHKT,0.578
13,MLMI,≤ 0.2
14,AMSW,≤ 0.2
15,QTGH,0.424
16,WVTR,≤ 0.2
17,RKTW,≤ 0.2
18,ANEG,≤ 0.2
19,CGNT,≤ 0.2
20,NIDR,≤ 0.2
21,QCYK,≤ 0.2
22,CHRR,≤ 0.2
23,NCRF,≤ 0.2
24,WHDC,≤ 0.2

row,Variant,one-hybrid fitness for binding NBS DNA
1,SQCM,≤ 0.2
2,RMCM,≤ 0.2
3,TISD,≤ 0.2
4,HDDY,≤ 0.2
5,QHHD,≤ 0.2
6,ILLT,≤ 0.2
7,TLTV,≤ 0.2
8,VERF,≤ 0.2
9,SNKI,≤ 0.2
10,VERY,≤ 0.2
11,WNGI,≤ 0.2
12,QFLW,≤ 0.2
13,TYLN,≤ 0.2
14,TRLH,≤ 0.2
15,SYHR,≤ 0.2
16,DNME,≤ 0.2
17,LNWH,≤ 0.2
18,MLSY,≤ 0.2

# Reference: a collection of fitness landscapes (doi:10.1016/j.celrep.2020.107928)
